# Experimental data published in patent US20200377587A1 (NANTBIO, published 2020).
# T1: IL-8 (UniProt P10145 28-99, limits assumed)
# T1 construct: also called Interleukin-8; immobilized IL-8
# T1 sequence (looked up): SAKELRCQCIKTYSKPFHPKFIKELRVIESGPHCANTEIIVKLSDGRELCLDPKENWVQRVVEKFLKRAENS
# B1: IgG1 49-10 (antibody, V domains shown)
# VH: [skipping about 100 residues]DLGWLSRLFAGFDVWGQGTLVTVSS
# VL: DIQMTQSPSSLSASVGDRVTITCQASQDISNYLNWYQQKPGKAPKLLIYDASNLETGVPSRFSGSGSGTDFTFTISSLQPEDIATYYCQQDYGYPLTFGQGTKVEIK
# notes: also called 49-10 IgG1; Clone 49-10
# Key:
# IL-8 [1] = molecular target: T1, IL-8; experiment: SPR, immobilized IL-8, IgG, 37 C
# Method: (§1) Here, scFv and corresponding humanized IgG₁ were prepared using the sequences as indicated, and KD was determined using SPR with immobilized IL-8 as […] on the chip surface. All values are expressed as nanoM values at temperatures as indicated.
# IL-8 [2] = molecular target: T1, IL-8; experiment: SPR, immobilized IL-8, IgG1, 25 C
# Method: as §1
binder,measurement,setting,value
B1,Kd,IL-8 [1],3.45 nM
same,Kd,IL-8 [2],2.21 nM
